Test results as given in the supplement of paper PMC3334620.
Whole data set: some 33,000 sequences, median “E-score (-0.5 to 0.5)” near -0.036, cut for the highest 2% near 0.37. This is one part of the list.

biological target: T1, Yer064c (UniProt P40041); test: PBM E-score (8-mer binding enrichment) (E-score (-0.5 to 0.5)); higher = stronger / more preferred TF binding; most listed sequences are background and not binding sites; conditions: protein concentration: 200 nM; construct: GST-full length
T1 sequence: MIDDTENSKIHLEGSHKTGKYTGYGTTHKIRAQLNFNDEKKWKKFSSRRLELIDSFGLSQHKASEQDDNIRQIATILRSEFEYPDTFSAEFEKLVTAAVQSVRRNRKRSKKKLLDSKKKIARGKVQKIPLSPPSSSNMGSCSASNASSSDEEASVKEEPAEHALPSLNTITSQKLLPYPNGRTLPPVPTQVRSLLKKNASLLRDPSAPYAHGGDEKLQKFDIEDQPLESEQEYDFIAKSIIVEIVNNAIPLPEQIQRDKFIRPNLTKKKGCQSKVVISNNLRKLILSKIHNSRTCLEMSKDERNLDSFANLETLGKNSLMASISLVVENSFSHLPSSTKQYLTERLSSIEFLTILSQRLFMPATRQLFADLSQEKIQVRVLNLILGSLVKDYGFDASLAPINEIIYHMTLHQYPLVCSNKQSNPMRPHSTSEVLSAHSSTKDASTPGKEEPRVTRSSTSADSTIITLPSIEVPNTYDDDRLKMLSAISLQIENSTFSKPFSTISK
Outline: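 Using PURExpress in vitro transcription/translation, GST-tagged yeast transcription factors were made in full-length or DNA-binding-domain form. These were applied at about 100-200 nM to double-stranded universal all-10-mer Agilent arrays, and bound protein was detected with fluorescent anti-GST. Scans were normalised with masliner before the Universal PBM Analysis Suite assigned E-scores to ungapped eight-base words pooled with their reverse complements.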

Sequence	PBM E-score
CCTTTAAA	-0.203
GCGACGAA	-0.0428
ACGTAAAA	-0.0865
AAGCAATG	-0.0165
TAAGGCTA	0.0667
AAGAGATT	0.0324
ACCTTACA	0.00881
CCGCACGC	0.0407
GGAGATAA	-0.0354
ATAGTGCC	-0.172
CCCTTGTC	-0.245
ACCTCACG	0.00697
GGTATCGA	0.0487
CTAATGCC	-0.144
AACACAGG	-0.0744
AGAGGATG	-0.129
CGTGAACC	0.0296
CTTCGGTA	-0.0743
AGTTCGAA	0.0513
CTCTCAAC	-0.0783
GTAACAAA	0.00224
CACTGACC	-0.124

Sequence	PBM E-score
GCCTCTTA	-0.0591
AGGCTAAG	-0.179
CGATTACC	0.0503
TCAGAGAA	0.158
AGACAAAT	0.0231
CTTCGCTA	0.05
CATATAAG	0.0947
ACCGTATC	-0.165
CTTCATAA	0.0699
AATACCGC	-0.136
CCACTAGG	-0.223
CATTGACC	-0.153
ACTTCCAT	0.0833
GGGTCCTA	-0.243
GGTCGCAC	-0.269
ATTTTCCA	-0.0878
CGACAACA	-0.0357
CCAATAAG	-0.0633
GCTGTGCC	-0.251
GAGCTACC	-0.196
GAGAAGCC	-0.201
TGCCCGAA	-0.127

Sequence	PBM E-score
CCACGGAA	-0.0227
GAAGTCGC	0.26
GTATCCGA	-0.202
ACGCCTTA	-0.0171
AAAACGAG	-0.0838
CGTCAGTA	0.0514
CCGGCGAG	-0.131
GAGGGAGC	-0.3
AGGTTTAA	0.202
TGATATAA	-0.103
ATCCCCTG	-0.208
ACTACAGA	0.211
ACTGCTTG	0.00264
GCCTCTCC	-0.416
AATATTAG	-0.00511
GTCATCAC	0.248
ATCGCGCA	-0.0614
GAACACAA	0.0189
AAGCCATC	0.169
ATGCTGAA	0.108
CAGCCGAC	0.0244
ATTAGTTA	0.153

Sequence	PBM E-score
AGACCTGA	0.0539
CACGTCCA	-0.198
TCCTTAGA	0.0256
AGACTATC	0.35
ATTCAGTG	0.214
AGGCGTGC	-0.184
TAGGGAGA	-0.103
ACAGTAGG	-0.228
AGCGCACG	-0.207
AACACTGA	0.117
GCAGAGCC	-0.246
CTATTGCC	-0.282
AACTCATC	0.33
GGGCTAAC	0.0488
CGGCGTGC	-0.286
AGAATCAA	0.243
GTAATCCA	0.146
AACGGAAG	-0.169
CCGTTCAA	-0.24
CACGCTAG	0.0352
